Experimental findings from paper PMC6919601, “Identification of Plasmodium dipeptidyl aminopeptidase allosteric inhibitors by high throughput screening” (PLoS ONE, 2019) are described below.

Structures are written as SMILES. Values joined by “and” are separate entries in the source; they are usually repeats but may differ in a detail not shown here. Equal entries are not always repeated. In all, about 110,000 compounds went through this assay and about 230 (0.21%) showed an effect of 50% or more. This is one part of the list.
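Note: 30 min substrate incubation versus DMSO and 10 µM JCP410 controls.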

The target in this assay is DPAP1 (Plasmodium falciparum, UniProt Q8IIJ9). Briefly: primary screen, percent inhibition; read by cleavage of a fluorogenic dipeptide substrate; higher = more effect of the substance. The arrangement: species or system P. falciparum D10 trophozoite lysates; single well.
Chain of DPAP1 (Q8IIJ9 whole entry, looked up): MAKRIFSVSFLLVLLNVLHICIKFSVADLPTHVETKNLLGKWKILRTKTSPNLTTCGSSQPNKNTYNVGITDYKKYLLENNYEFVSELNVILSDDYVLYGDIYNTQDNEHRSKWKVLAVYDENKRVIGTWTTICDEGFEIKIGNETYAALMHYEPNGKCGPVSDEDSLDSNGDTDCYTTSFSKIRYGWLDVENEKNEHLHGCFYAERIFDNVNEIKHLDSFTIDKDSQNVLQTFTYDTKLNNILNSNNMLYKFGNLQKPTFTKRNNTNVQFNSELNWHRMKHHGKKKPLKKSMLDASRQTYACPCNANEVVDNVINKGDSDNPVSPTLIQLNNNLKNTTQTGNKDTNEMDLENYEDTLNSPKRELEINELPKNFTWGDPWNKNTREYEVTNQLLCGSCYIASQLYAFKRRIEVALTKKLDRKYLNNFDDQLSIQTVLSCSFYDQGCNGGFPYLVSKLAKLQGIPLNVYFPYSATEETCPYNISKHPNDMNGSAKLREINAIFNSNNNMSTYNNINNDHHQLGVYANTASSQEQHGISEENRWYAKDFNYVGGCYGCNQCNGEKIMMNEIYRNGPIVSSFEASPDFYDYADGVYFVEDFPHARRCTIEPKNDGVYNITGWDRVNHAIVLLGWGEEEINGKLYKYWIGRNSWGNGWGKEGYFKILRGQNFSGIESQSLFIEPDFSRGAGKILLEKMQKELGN
As to `Cc1cc(C)c(S(=O)(=O)NCC(=O)NC(C)(C)C)c(C)c1`, the “% Inhibition @ 10 uM” value is given as 0.964%.
The same measure for `COCC/N=c1\cc(-c2ccccc2)oc2ccc(Br)cc12`: 0.561%; for `CCOc1cc(C2C(C(=O)c3ccc(OC)cc3)=C(O)C(=O)N2Cc2ccco2)ccc1O` (centres unmarked): 1.64%; for `OC1CCCN(Cc2ccc(-c3cccc(Cl)c3)o2)C1` (centres unmarked): 1.9%.
The same measure for `COc1ncccc1C(=O)NCC(CC(=O)O)c1ccc(Cl)cc1` (centres unmarked): -3.16%.
`COc1ccc(N2CCN(C(=O)NC3(C(=O)NCC#N)CCCCC3)CC2)cc1`: the “% Inhibition @ 10 uM” value is reported as 4.63%.
For `Cc1cc(C)c2c3c(sc2n1)C(c1c(F)cccc1Cl)C(C#N)=C(N)O3` (centres unmarked), the “% Inhibition @ 10 uM” value stood at 4.54%.
For `O=C(/C=C/c1ccccc1)Nc1nnc(Cc2ccc(Cl)cc2)s1` the value was 19.6%; for `CCOC(=O)c1c(C)n(-c2ccccc2)c2cc(Br)c(O)cc12`, -1.18%; for `O=C(CCCn1c(=O)[nH]c2ccsc2c1=O)N1CC=C(c2ccccc2)CC1`, -0.972%.
For `COc1cc(CNC2CCN(C(C)=O)CC2)cc(OC)c1` the value was -7.18%.
Take `O=C(c1csc2ccccc12)N1CCN(c2ncccn2)CC1`: the “% Inhibition @ 10 uM” value amounted to 5.29%.
The same measure for `Cc1nc(-c2ccc(C(=O)Nc3ccccc3F)cc2)cs1`: 2.06%.
The same measure for `CC1CCN(C(=O)c2cc(-c3cccc(O)c3)on2)CC1`: -3.12%.
As to `CN1C(N)=NC(=O)/C1=C/c1cc(Br)c(O)c(Br)c1`, the “% Inhibition @ 10 uM” value is given as -4.51%.
The same measure for `O=C(/C=C/c1ccco1)Nc1cccnc1`: -6.91%; for `CC(C)OCC(O)CN1CCN(c2ccccc2)CC1` (centres unmarked): -0.884% and 4.08%.
For `Cc1ccccc1OCCCc1c(C)n[nH]c1C` the value was 0.634%.
For `Oc1ccccc1-c1n[nH]c(-c2ccccc2O)n1` the value was -1.56%; for `CC(C)c1ccc(NC(=O)CN(c2cccc(F)c2)S(C)(=O)=O)cc1`, -5.51%; for `O=C(CN1CCc2ccccc2C1)Nc1ccc(Oc2ccccc2)cc1`, -1.17%.
Consider `O=C(CNS(=O)(=O)c1cc(Cl)ccc1Cl)Nc1ccc(F)cc1`, for which the “% Inhibition @ 10 uM” value was -2.83%.
For `COC(=O)c1ccc(CSc2nc3ccncc3[nH]2)cc1` the value was 1.72%; for `Cc1ccc(C(O)C(=O)c2ccccc2)o1` (centres unmarked), 0.0289%.
The same measure for `O=C(Nc1ccccc1)C(C(=O)c1ccccc1)S(=O)(=O)c1ccccc1` (centres unmarked): -1.45%.
For `CCn1c(SCC(=O)NCC2CCCO2)nc2c(c1=O)SCC2` (centres unmarked) the value was 1.31%.
On to `CCCN(Cc1cc(Cl)cc(Cl)c1O)CC1CC1`, for which the “% Inhibition @ 10 uM” value is given as -1.21%.
With `CN(C)CP(=O)(O)CCc1ccccc1`, the “% Inhibition @ 10 uM” value is -3.27%.
For `CCOc1ccc(NC(=O)c2cccc(C(=O)Nc3ccc(OCC)cc3)n2)cc1` the value was -0.872%.
The same measure for `Cn1ccc(C(=O)Nc2cnn(Cc3ccc(Cl)c(Cl)c3)c2)n1`: -1.28%.
The same measure for `O=C(NCc1cccnc1)C1CCC(CNS(=O)(=O)c2cccc3cccnc23)CC1` (centres unmarked): -2.42%.
With `COc1ccc(OC)c(NC(=O)c2ccc([N+](=O)[O-])cc2)c1`, the “% Inhibition @ 10 uM” value is 2.54%.
The same measure for `Cc1nnc(N2CCCC(C(=O)N3CCCC3)C2)c2nn(-c3ccccc3)c(C)c12` (centres unmarked): -4.18%; for `Cc1csc(NC(=O)c2sc3nc4c(c(C(F)(F)F)c3c2N)CCC4)n1`: 5.26%.
The same measure for `CC(=O)c1nc2ccccc2n1Cc1ccc(Cl)cc1`: -6.17%; for `CC(=O)N1CCC(N2CCN(Cc3ccccc3)CC2)CC1`: -1.64%.
Take `CCN(Cc1ccccc1)C(=O)Cn1ncc2c3ccccc3n(Cc3ccccc3)c2c1=O`: the “% Inhibition @ 10 uM” value was determined as 4.95%.
For `Cc1ccc(Cn2nc(C)c(NC(=O)C3CC3)c2C)cc1` the value was -0.0619%.
For `CC(C)(C)NC(=O)c1ccc(NC(=O)CSc2ccc(Cl)cc2)cc1` the value was -1.11%; for `COc1ccccc1CNC(=O)CCCOc1ccc(Cl)cc1Cl`, 8.06%.
The same measure for `CCc1ccc(S(=O)(=O)c2nnn3c2nc(N2CCCC2)c2cc(Cl)ccc23)cc1`: -4.85%; for `COc1ccc(CN2CCN(C)CC2)c(O)c1`: 3.48%.
For `CCc1ccccc1NC(=O)c1ccc(C(C)(C)C)cc1`, the “% Inhibition @ 10 uM” value came out at 1.13%.
In the case of `Cn1cc(S(=O)(=O)N2CCOCC2)cc1C(=O)NCc1ccccc1`, the “% Inhibition @ 10 uM” value worked out at 1.96%.
For `COc1ccc(C2C3=C(O)CC(C)(C)CC3=NC(C)=C2C(=O)Nc2cc(C)ccn2)c(OC)c1` (centres unmarked) the value was -9.79%; for `CCOC(=O)N1CCC(NCCOC)CC1`, -5.44%; for `CCO/C=C1/C(=O)N(c2ccc(OC)cc2)C(=O)c2cc(OC)ccc21`, 9.02%.
For the molecule `Cc1cc2ccccc2c(=O)n1CC(=O)NCC(=O)N1CCC2(CC1)OCCO2`, the “% Inhibition @ 10 uM” value stood at 0.457%.
The same measure for `CCCC(=O)N1c2ccccc2Sc2ccccc21`: -5.94%.
With `Cc1cc(C)nc(NC(=O)Nc2cccc(Cl)c2)c1`, the “% Inhibition @ 10 uM” value came to 2.48%.
In the case of `Cc1cc(-c2ccco2)n(CC(=O)NCCCc2ccccc2)n1`, the “% Inhibition @ 10 uM” value is -1.75%.
With `O=C(NCc1ccccn1)C1CCN(c2nc3ccccc3n3cccc23)CC1`, the “% Inhibition @ 10 uM” value is listed as 1.51%.
Regarding `CCc1ccc(-c2cc(C(F)(F)F)n3nc(C(=O)NCc4cnn(C)c4C)cc3n2)s1`, the “% Inhibition @ 10 uM” value was 1.39%.
For `COc1ccc(/C=N/OCc2cccc(Br)c2)cc1OC` the value was 4.54%; for `Cc1c(CCC(=O)O)c(=O)oc2c(C)c3oc4c(c3cc12)CCCC4`, 3.81%; for `CC(C)CNC(=O)C1CCN(C(=O)c2ccc(F)cc2)CC1`, 0.316%.
On to `O=C(CNS(=O)(=O)c1ccccc1)Nc1ccccc1F`, for which the “% Inhibition @ 10 uM” value turned out to be 0.964%.
The same measure for `COc1ccc(CCCC(=O)Nc2cccc(OC)c2)cc1`: -2.88%; for `Cn1c(=O)c2c(nc(CN3CCCCC3)n2CCCc2ccccc2)n(C)c1=O`: -1.43%; for `CCC(=O)N(Cc1ccco1)C1CC(=O)N(c2ccccc2)C1=O` (centres unmarked): 0.76%.
For `COc1ccc(C2C(C(=O)c3ccccc3)=C(O)C(=O)N2Cc2ccccc2)c(OC)c1` (centres unmarked) the value was -5.13%; for `CCS(=O)(=O)c1nc(S(=O)(=O)c2ccc(C)cc2)c(N2CCC3(CC2)OCCO3)s1`, -0.522%.
The same measure for `OC1=C2C(=Nc3ccccc3NC2c2ccsc2)CC(c2cccs2)C1` (centres unmarked): -1.06%; for `O=C(C(c1ccccc1)c1ccccc1)N1CCN(C2CCN(Cc3ccccc3)CC2)CC1`: -9.65%.
Regarding `COc1cccc(-c2ccc(-c3noc(-c4cccc(C)c4)n3)c(OC)n2)c1`, the “% Inhibition @ 10 uM” value is given as -3.13%.
